Source: the supplement of paper PMC12217912
The list shows a part of the results. The full chains were built here from the parent and the listed change. Inactive controls read about 0.05.

B1: TEV protease; numbered along this chain (parent)
chain: MGESLFKGPRDYNPISSSICHLTNESDGHTTSLYGIGFGPFIITNKHLFRRNNGTLVVQSLHGVFKVKDTTTLQQHLVDGRDMIIIRMPKDFPPFPQKLKFREPQREERICLVTTNFQTKSMSSMVSDTSCTFPSGDGIFWKHWIQTKDGQCGSPLVSTRDGFIVGIHSASNFTNTNNYFTSVPKNFMELLTNQEAQQWVSGWRLNADSVLWGGHKVFMVKPEEPFQPVKEATQL

Variants of: B1
Assay: raw area under fraction-flipped curve 0-4 h after induction (AUC4h, not background-subtracted), DNA-recorder readout of cleavage of the substrate (dimensionless); higher = more cleavage of the substrate by the protease variant
Conditions: temperature: 34 °C; time window: 0-4 h after rhamnose induction
Experimental: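 In vivo DNA recorder in E. coli TOP10(DE3) ΔrhaA at 34 °C. Each TEVp single-site mutant (parent TEVp 0) is paired with a single-site variant of the 7-mer TEVs (canonical ENLYFQ|S). The substrate sits between flexible linkers in a Bxb1-sfGFP-TEVs-SsrA fusion, so cleavage stabilises Bxb1 and speeds flipping of a recombination array, read by NGS. The value is the raw area under the fraction-flipped curve over 0-4 h after rhamnose induction (AUC4h), with ≥20 reads per time point. It is not background-subtracted; inactive controls average about 0.047.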
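Note: Bxb1 expression induced with 0.2% (w/v) L-rhamnose at OD600 near 0.5, cultures sampled hourly, flipped fraction per protease–substrate barcode pair counted by paired-end Illumina sequencing.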

Variant	area with substrate ENAYFQS	area with substrate ENCYFQS	area with substrate ENDYFQS	area with substrate ENEYFQS	area with substrate ENFYFQS	area with substrate ENGYFQS	area with substrate ENHYFQS	area with substrate ENIYFQS	area with substrate ENKYFQS	area with substrate ENMYFQS	area with substrate ENNYFQS	area with substrate ENPYFQS	area with substrate ENQYFQS	area with substrate ENRYFQS	area with substrate ENSYFQS	area with substrate ENTYFQS	area with substrate ENVYFQS	area with substrate ENWYFQS	area with substrate ENYYFQS
N52W	0.0559	0.0615	0.0664	0.0605	0.0514	0.0803	0.0732	0.0688	0.065	0.07	0.0613	0.0598	0.0637	0.0679	0.0552	0.0581	0.0594	0.0523	0.042
I43R	0.0542	0.0219	0.0463	0.0418	0.0477	0.0481	0.0687		0.0535	0.0345	0.0469	0.0469	0.0357	0.0458	0.0432	0.0432			0.0416
I43K	0.0521	0.047	0.0475	0.0496	0.0519	0.0467	0.0529		0.0545	0.0458		0.0534	0.0406	0.0458	0.0477	0.0423	0.0428		0.054
L56M	0.0529	0.0598	0.057	0.0742	0.0672	0.0762	0.0492	0.114		0.0747	0.0717		0.0586			0.0497			0.048
L56C	0.0606		0.0685		0.0602	0.0684	0.0561	0.103	0.0536		0.0473	0.0596	0.0546	0.0475	0.067	0.0553	0.0613	0.0089	
L56I	0.0521	0.0381		0.0403		0.0629	0.0731			0.0884			0.0604	0.0585	0.0571		0.101	0.0443	
L56P	0.0564	0.0493	0.0495	0.0468		0.0677	0.0503	0.056	0.0404	0.0344	0.0405	0.0339	0.0386		0.0453	0.0372			
L33N	0.0581	0.0618	0.0731	0.0538	0.0536	0.0693	0.0643	0.0971	0.0768		0.0528	0.0443	0.0546			0.063	0.0774	0.0645	0.0629
L48S	0.0584	0.0657	0.0648	0.0588	0.0562		0.0744	0.0713	0.102		0.0549	0.0648	0.0718	0.0565	0.0734	0.0603	0.0552		0.0641
L48C	0.0651	0.0612	0.0603	0.0592	0.0677	0.0571	0.0609		0.0639			0.0539		0.0594	0.0588	0.0584			0.0557
L48A	0.0701	0.0608	0.0678	0.0628	0.0505	0.0735	0.0617	0.0762	0.0604	0.0675	0.051	0.0699	0.0578		0.0634	0.0778	0.0678	0.0568	
L48K	0.0619	0.0492	0.0536	0.0633	0.0465					0.0741	0.0562		0.0518	0.0644	0.0577	0.0675		0.049	
L48G	0.0555	0.0631	0.0637	0.0616		0.0729	0.0646		0.0691	0.0727	0.069	0.0516	0.0621	0.068	0.0629		0.0659		0.0688
L48W	0.0668	0.0555	0.0649	0.0635	0.0535	0.047	0.077	0.0781	0.067	0.0764	0.0665	0.0525	0.0601	0.0588	0.064	0.0596	0.0594	0.0596	0.0495
L48M	0.0484	0.0604	0.0403	0.0648	0.064	0.0579	0.0457			0.0763	0.0665	0.0566	0.072	0.0516	0.0597	0.045	0.0631		
L48Q	0.0602	0.0662	0.0626	0.0607	0.0716	0.0603	0.0568	0.0558	0.0585	0.0546	0.0635		0.0562	0.061	0.0549	0.0967	0.0805	0.0596	0.0458
L48R	0.0617	0.0663	0.0555	0.07	0.0803		0.0611	0.0459	0.065		0.067	0.0676	0.0617	0.0593	0.0583		0.0574		0.0526
L48V	0.0682	0.0632	0.0654	0.0573	0.0552	0.0589	0.0578	0.0754	0.0741	0.0604	0.0594	0.0606	0.0631	0.059	0.0642	0.0641	0.0616	0.0565	0.0575
L48E	0.0589	0.0676	0.0608		0.0478	0.0576		0.0636			0.0619	0.0509	0.0573		0.0557			0.0606	
L48F	0.0394		0.066	0.0654		0.0534	0.0599		0.0594		0.0652	0.0548	0.0759	0.079	0.068	0.0608	0.092	0.0438	0.0695
L48N	0.0644	0.0633	0.0624	0.0551	0.0605	0.0512	0.0624	0.0535			0.0615	0.0591	0.0533		0.0569		0.0467	0.0082	0.0545
L48I	0.0593		0.0524	0.062	0.0548	0.0611					0.0581	0.0506	0.0635		0.072	0.0627	0.0803	0.0544	0.0755
G54I	0.0511	0.0617	0.049	0.066	0.0479			0.0818	0.0515	0.0608	0.0601		0.0545	0.0611	0.0593	0.0718	0.0512	0.0397	0.0558
